# Data as given in the supplement of paper PMC12645437, “Orthogonal IMiD-Degron Pairs Induce Selective Protein Degradation in Cells” (ACS Chemical Biology, 2025).
# This is one part of the list.
# Target: no compound (DMSO)
# Assay: log2 fold change of degron read counts, EGFP-low vs EGFP+ sorted cells; higher = lower degron-EGFP level without compound (poor expression or instability)
# Settings: compound: DMSO control; 18 h
# 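Also: jurkat cells carrying a lentiviral library of mutant zinc finger degrons fused to EGFP plus mCherry, mCherry+ cells FACS sorted, degron abundance counted by next-generation sequencing.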
row,Sequence,log2 fold change of degron read counts
1,FDCPICGHVFTQKGNLLRHIKL,-0.651
2,LECNQCGFICTQKGNLLRHIKL,-0.0985
3,LQCPICGFDCTQKGNLLRHIKL,0.343
4,FDCNQCGHCFTQKGNLLRHIKL,-0.257
5,LACPICGFNCTQKGNLLRHIKL,0.819
6,FVCPICGRLFTQKGNLLRHIKL,0.38
7,FHCDICGASFTQKGNLLRHIKL,-3.09
8,FWCPQCGAWFTQKGNLLRHIKL,1.68
9,FCCDICGAIFTQKGNLLRHIKL,-0.633
10,FVCDICGAPFTQKGNLLRHIKL,-0.795
11,FECEICGHFFTQKGNLLRHIKL,-1.63
12,FWCPICGREFTQKGNLLRHIKL,0.769
13,FVCPVCGAIFTQKGNLLRHIKL,0.717
14,LMCNQCGFHCTQKGNLLRHIKL,0.856
15,FVCNQCGHPFTQKGNLLRHIKL,-0.374
16,FACPICGRRFTQKGNLLRHIKL,-0.00509

row,Sequence,log2 fold change of degron read counts
1,LMCEICGFQCTQKGNLLRHIKL,-0.34
2,LRCPICGFNCTQKGNLLRHIKL,1.01
3,FKCDICGAEFTQKGNLLRHIKL,-2.06
4,FVCNQCGRRFTQKGNLLRHIKL,-0.368
5,FYCPQCGAHFTQKGNLLRHIKL,0.267
6,FYCEICGHPFTQKGNLLRHIKL,-0.549
7,LECEICGFPCTQKGNLLRHIKL,-0.00219
8,FKCPVCGACFTQKGNLLRHIKL,-0.595
9,FHCEQCGANFTQKGNLLRHIKL,-1.49
10,FGCEQCGAQFTQKGNLLRHIKL,-2.75
11,FACEQCGALFTQKGNLLRHIKL,-1.95
12,FWCPICGHTFTQKGNLLRHIKL,0.36
13,FGCEVCGAGFTQKGNLLRHIKL,-0.968
14,FHCEVCGAWFTQKGNLLRHIKL,-0.607
15,FVCNQCGHEFTQKGNLLRHIKL,-1.23
16,FMCSVCGHFFTQKGNLLRHIKL,0.468
